Where a name gives a salt, the structure may show the parent alone. Read-outs that look alike come from different tables or passages of the source.
System: cellular ATP levels
Details: for ATP (composite Z-score): normalized score vs mock-treated (DMSO) wells
[1] = composite Z-score vs mock-treated (DMSO) wells, Conc 20 μM
[2] = normalized composite Z-score vs mock-treated (DMSO) wells, Conc 20 μM
[3] = composite Z-score vs DMSO, Conc 20 μM
[4] = composite Z-score vs DMSO wells, Conc 20 μM
[5] = 20 μM, composite Z-score vs DMSO

**Q.** For `COc1cc2ccc(=O)oc2c(OC)c1OC` [fraxidin methyl ether], which ATP [1] is on record?
**A.** 0.407

**Q.** How did the ATP [2] turn out when `COC(=O)CC[C@@H](C)[C@H]1CC[C@H]2[C@@H]3[C@H](O)C[C@@H]4C[C@H](O)CC[C@]4(C)[C@H]3C[C@H](O)[C@]12C` [cholic acid, methyl ester] was run?
**A.** 2.202

**Q.** For `NCCCCCN` [cadaverine], which ATP [3] is on record?
**A.** 0.066

**Q.** `OCc1ccccc1O` [salicyl alcohol] was tested. Which ATP [4] did it give?
**A.** 0.113

**Q.** `COc1cc2c(cc1OC)[C@@H]1C(=O)c3ccc4c(c3O[C@@H]1CO2)CC(C(C)C)O4` (stereo partly shown) [dihydrorotenone, reference compound] was tested. Which ATP [3] did it give?
**A.** −5.350

**Q.** How did the ATP [1] turn out when `CCC(C)C(=O)O[C@@H]1C[C@@]2(C)[C@H](c3ccoc3)OC(=O)CC23OC2(C)OC34[C@H](OC(=O)C(C)C)[C@@]3(O)[C@@H](OC(=O)C5(C)OC5C)[C@@]5(C)C[C@]3(O)[C@@](C)([C@H]5CC(=O)OC)C14O2` (stereo partly shown) [entandrophragmin] was run?
**A.** 1.006

**Q.** For `Cc1cc(OC(=O)c2c(C)cc(OC(=O)c3c(C)cc(O)cc3O)cc2O)cc(O)c1C(=O)O` [gyrophoric acid], which ATP [2] is on record?
**A.** 0.125

**Q.** For `O=C1C[C@@H](c2ccc(O)cc2)Oc2cc(O)ccc21` [liquiritigenin], which ATP [2] is on record?
**A.** −0.998

**Q.** How did the ATP (Table 4, C2C12 myotubes, 48 h, composite Z-score) turn out when `COc1cc2c(cc1OC)[C@@H]1C(=O)c3c(O)cc4c(c3O[C@@H]1CO2)C=CC(C)(C)O4` [alpha-toxicarol, reference compound] was run?
**A.** −2.946

**Q.** And the ATP [3]?
**A.** −2.946

**Q.** How did the “ATP (composite Z-score)” value (Conc 20 μM) turn out when `COC(=O)C[C@H]1C(C)(C)C2(O)OC34CC2C(=O)[C@]1(C)C3CC[C@]1(C)C4=CC(=O)O[C@H]1c1ccoc1` (stereo partly drawn) [8beta-hydroxycarapin, 3,8-hemiacetal] was run?
**A.** −0.147

**Q.** With `Cc1noc(NS(=O)(=O)c2ccc(N)cc2)c1C` [sulfisoxazole] as the molecule, how does the ATP [4] read?
**A.** 0.384

**Q.** For `CC(=O)O[C@H]1CC[C@@]2(C)C(=CC[C@H]3[C@@H]4CC[C@H]([C@H](C)CCCC(C)C)[C@@]4(C)CC[C@@H]32)C1` [cholesteryl acetate], which ATP [3] is on record?
**A.** 0.018

**Q.** For `C[N+]1(CCCCC[N+]2(C)CCCC2)CCCC1` [pentolinium], which ATP (composite Z-score vs DMSO, Conc 10.24 μM) is on record?
**A.** 1.449

**Q.** What about the ATP [3] of the same molecule?
**A.** 0.247

**Q.** For `CC(=O)[C@@]1(O)CC[C@H]2[C@@H]3C[C@H](C)C4=CC(=O)C=C[C@]4(C)[C@@]3(F)[C@@H](O)C[C@@]21C` [fluorometholone], which ATP (composite Z-score vs DMSO, Conc 10.62 μM) is on record?
**A.** −0.458

**Q.** With `COc1cc(O)c2c(=O)cc(-c3ccc(OC)c(-c4c(O)cc(O)c5c(=O)cc(-c6ccc(O)cc6)oc45)c3)oc2c1` [ginkgetin] as the molecule, how does the ATP [3] read?
**A.** −2.623

**Q.** With `N[C@H]1C(O)O[C@H](CO)[C@H](O)[C@@H]1O[C@@H]1O[C@H](C(=O)O)[C@@H](O)[C@H](O)[C@H]1O` (stereo partly shown) [chondrosine] as the molecule, how does the ATP [3] read?
**A.** 0.150

**Q.** Which “ATP (composite Z-score)” value (Conc 20 μM) does the source give for `CS(=O)(=O)CCCCN=C=S` [erysolin] here?
**A.** −3.023

**Q.** `CC(=O)O[C@@H]1CC[C@@]2(C)C(C[C@@H](OC(C)=O)[C@@]3(C)C4=CC(=O)O[C@@H](c5ccoc5)[C@]4(C)CCC23)C1(C)C` (stereo partly drawn) [3alpha-acetoxydihydrodeoxygedunin] was tested. Which ATP [1] did it give?
**A.** −0.586

**Q.** How did the ATP [3] turn out when `CCN(CCCc1ccccc1)CCCc1ccccc1` [alverine citrate] was run?
**A.** −2.140

**Q.** With `COc1ccc(-c2cc(=O)c3ccc(OC)cc3o2)cc1` [4,7-dimethoxyflavone] as the molecule, how does the ATP [2] read?
**A.** −0.035

**Q.** How did the ATP (13.14 μM, composite Z-score vs DMSO) turn out when `O=C(O)CCCc1ccc(N(CCCl)CCCl)cc1` [chlorambucil] was run?
**A.** −0.010

**Q.** And the ATP [5]?
**A.** 0.189

**Q.** With `CC(=O)C=CC1C(C)(O)CCC2C(C)(C)CCCC21C` (stereo not shown) [8-hydroxy-15,16-bisnor-11-labden-13-one] as the molecule, how does the ATP [2] read?
**A.** 0.871

**Q.** `COC(=O)[C@@H]1OC(=O)C2OC23[C@@]1(C)CCC1[C@]2(C)C(C[C@@H](O)[C@]13C)C(C)(C)[C@H](OC(C)=O)C[C@@H]2OC(C)=O` (stereo partly shown) was tested. Which ATP [1] did it give?
**A.** 0.731

**Q.** Which ATP [3] does the source give for `COC(=O)c1c(C)cc(O)cc1O` [methyl orsellinate] here?
**A.** 0.487

**Q.** `O[C@H]1[C@H](O)[C@@H](O)C2OC[C@H]1O2` [anhydroglucose] was tested. Which ATP [3] did it give?
**A.** 0.059

**Q.** For methylorsellinic acid, ethyl ester, which ATP [2] is on record?
**A.** 0.341

**Q.** How did the ATP [2] turn out when `CC(C)c1ccc2c(c1)CC[C@H]1[C@](C)(C(N)=O)CCC[C@]21C` [dehydroabietamide] was run?
**A.** 0.588

**Q.** How did the ATP [3] turn out when `CCc1ccc2c(O)c3c(cc2c1C(=O)OC)C(=O)c1c(O)ccc(O)c1C3=O` [bisanhydrorutilantinone] was run?
**A.** 0.217

**Q.** pteryxin was tested. Which “ATP (composite Z-score)” value (Conc 20 μM) did it give?
**A.** −0.082

**Q.** Which ATP (composite Z-score vs DMSO, Conc 20.18 μM) does the source give for `NC(=O)N/N=C/c1ccc([N+](=O)[O-])o1` [nitrofural] here?
**A.** 1.443

**Q.** With `CN(C)CCOC(=O)C(c1ccccc1)C1(O)CCCC1` (stereo not shown) [cyclopentolate] as the molecule, how does the ATP [4] read?
**A.** 0.293

**Q.** With `CC(C)C[C@H]1C(=O)N2CCC[C@H]2[C@]2(O)O[C@](NC(=O)[C@@H]3C=C4c5cccc6[nH]c(Br)c(c56)C[C@H]4N(C)C3)(C(C)C)C(=O)N12` [bromocriptine] as the molecule, how does the ATP [5] read?
**A.** 0.331

**Q.** Which ATP [4] does the source give for `CC(NCCC(c1ccccc1)c1ccccc1)c1ccccc1` (stereo not shown) [fendiline] here?
**A.** 0.842

**Q.** With `C[C@H](C[C@@H](O)[C@@H]1OC1(C)C)[C@@H]1CC[C@]2(C)C3=CC[C@H]4C(C)(C)C(=O)CC[C@]4(C)[C@H]3CC[C@@]12C` (stereo in doubt) [niloticin] as the molecule, how does the ATP [1] read?
**A.** 0.356

— patent US20090143279A1 (priority 2007, published 2009)
